From PubChem BioAssay AID651820 (National Center for Advancing Translational Sciences (NCATS), 2012)
In all, about 340,000 compounds went through this assay and about 12,000 (3.5%) were called active. The inconclusive results got no clear call from the source; some entries with a clear call stand among them for comparison. Calls come from the whole dose curve; as a rule, active = well fitted inhibition curve with a large enough effect; inconclusive = small, poorly fitted or top-dose-only effect, or another doubt; inactive = no such curve, though single readings can be large or run the other way. Potencies of inconclusive entries are left out as doubtful fits.

Test: qHTS Assay for Inhibitors of Hepatitis C Virus (HCV)
Settings: Huh7.5.1 HCVcc-Cre (HCVcc is cell-culture hepatitis C virus) infection, luciferase reporter, 44 h; activity change, negative = inhibition: at 41.8 µM (top of the series) unless noted
Method in brief: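 HCVcc-Cre virus at an moi near 0.5 was added right after compound to cells cultured 4 h from seeding (1,000 cells/well). Luciferase activity was determined 44 h later, 15 min after substrate addition at RT.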
% is set by controls: 0 for no effect and ±100 for the full control effect; potency is the fitted concentration of half-maximal effect; tags give direction and shape of the fitted curve.

Compound	activity change, negative = inhibition	Potency
COc1ccc2[nH]cc(C(=O)CN3CCCC(C)C3)c2c1 (stereo unspecified)	inactive: -19.6%	–
O=c1c2ccccc2[nH]c2ccccc12	–	inconclusive [inhibitor, single point]
CCc1nc(Nc2ccc(OC)c(OC)c2)c2nnn(Cc3ccccc3Cl)c2n1	–	inconclusive [inhibitor, partial curve]
CC1CCCC(NC(=O)COC(=O)c2ccc(N(C)C)cc2)C1C (stereo unspecified)	–	active: 2.82 µM
COc1ccccc1OCCn1cc(C(=O)C(C)C)c2ccccc21	–	inconclusive [inhibitor, partial curve]
O=C(COC(=O)Cc1ccc(F)cc1)NC(=O)c1ccccc1	inactive: 7.7%	–
Nc1nc(CN2CCN(c3ccccc3F)CC2)nc(Nc2ccc3c(c2)OCCO3)n1	inactive: 23.2%	–
Cc1cccc(C)c1NC(=O)CSc1nc(N2CCOCC2)nc(N2CCOCC2)n1	–	inconclusive [inhibitor, partial curve, poor fit]
CC(C)CCN(Cc1ccco1)S(=O)(=O)c1ccc(-c2ccc(=O)[nH]n2)s1	–	inconclusive [inhibitor, single point]
COc1ccc(OC)c(N(/C(N)=N/c2nc(C)cc(C)n2)S(=O)(=O)c2ccc(NC(C)=O)cc2)c1	–	inconclusive [inhibitor, full curve]
Cc1cc([N+](=O)[O-])nn1Cc1ccc(C(=O)N/N=C/c2ccc(O)cc2O)cc1	–	inconclusive [inhibitor, full curve]
CCOC(=O)C1(Cc2cccc(Cl)c2)CCCN(C(=O)c2ccco2)C1 (stereo unspecified)	inactive: -5.96%	–
CCOc1ccc(NC(=O)CNC(=O)c2nn(-c3ccc(OC)cc3)c(=O)c3ccccc23)cc1	inactive: -4.77%	–
CCC(=O)c1ccc(OCC(O)CN2CCN(C(c3ccccc3)c3ccccc3)CC2)cc1 (stereo unspecified)	–	inconclusive [inhibitor, partial curve, poor fit]
Cc1nn(C)c(=O)n1-c1ccc(Oc2ccccc2)cc1	inactive: 0.866%	–
c1csc(-c2nc(NCCCN3CCOCC3)c3ccccc3n2)c1	–	inconclusive [inhibitor, single point]
COc1ccc(CNC(=O)c2ccc(CS(=O)(=O)c3ccc(Br)cc3)o2)cc1	–	inconclusive [inhibitor, single point]
Cc1ccccc1C(=O)O/N=C(\N)c1cccc([N+](=O)[O-])c1	inactive: -22%	–
CC(C)N1C(=O)/C(=C/c2nc3ccccc3c(=O)n2-c2ccccc2)c2ccccc21	–	inconclusive [inhibitor, partial curve]
Cn1c(N)c(C(=O)COC(=O)CC(NC(=O)c2ccccc2Cl)c2ccccc2)c(=O)n(C)c1=O (stereo unspecified)	–	inconclusive [inhibitor, single point]
CN1CCN(c2ccc(Cl)cc2NC(=O)c2nn(-c3ccccc3)c(=O)c3ccccc23)CC1	–	inconclusive [inhibitor, single point]

Compound	activity change, negative = inhibition	Potency
CCOC(=O)C1CCCN(c2nc3c(C)cccn3c(=O)c2/C=C(\C#N)C(=O)NCc2ccco2)C1 (stereo unspecified)	–	inconclusive [inhibitor, single point]
Cc1ccc(C2=NN(C(=O)CCl)C(c3cccs3)C2)o1 (stereo unspecified)	–	inconclusive [inhibitor, full curve]
O=C(Cc1ccc(N2CCNC2=O)cc1)N1CCCC(Nc2ccc(F)c(F)c2)C1 (stereo unspecified)	–	inconclusive [inhibitor, full curve, poor fit]
Cc1ccc(S(=O)(=O)c2c(N)n(Cc3ccco3)c3nc4ccccc4nc23)cc1C	–	inconclusive [inhibitor, single point]
Cc1ccc(NC(=O)CN2c3cccc4cccc(c34)S2(=O)=O)cc1	inactive: -9.46%	–
O=C(Cn1cc[n+](CC(=O)c2ccc(Cl)cc2Cl)c1)c1ccc(Cl)cc1Cl	–	inconclusive [inhibitor, partial curve]
COc1ccc(C(CCN2CCOCC2)c2c(OC)cc(OC)c3c(C)cc(=O)oc23)cc1 (stereo unspecified)	inactive: -27.1%	–
COc1ccc(COC(=O)C2=C(C)NC(=O)NC2c2cc(OC)ccc2OC)cc1 (stereo unspecified)	–	inconclusive [inhibitor, partial curve]
COc1cccc(CNC(=O)C2CCC(CNc3nc(=S)[nH]c4ccccc34)CC2)c1 (stereo unspecified)	–	active: 2 µM
CC(=O)Nc1ccc(S(=O)(=O)N2CCC(C(=O)NCCc3c[nH]c4ccccc34)CC2)cc1	–	inconclusive [inhibitor, single point]
C[C@]1(O)CCC2C3CC[C@H]4C[C@@H](OC(=O)CNC(=O)CN)CC[C@]4(C)C3CC[C@@]21C (stereo partly specified)	–	inconclusive [inhibitor, single point]
Cc1nc(-c2ccc(C(=O)Nc3cccc(Br)c3)cc2)cs1	–	active: 4.47 µM
CN(CCOc1ccc(Cl)cc1)C(=O)c1cccc(S(=O)(=O)N2CCN(c3ccccc3)CC2)c1	–	active: 3.55 µM
Cc1ccc2c(c1)c(C)c(C)n2CC(O)Cn1nnc2ccccc21 (stereo unspecified)	–	inconclusive [inhibitor, partial curve]
COc1ccc(-c2nnn(CC(=O)N(CC(=O)NCCC(C)C)c3ccccc3)n2)cc1OC	–	inconclusive [inhibitor, partial curve]
CCC(=O)c1ccc(N2CCN(C(=O)c3cc([N+](=O)[O-])ccc3N3CCN(C)CC3)CC2)c(F)c1	–	inconclusive [inhibitor, partial curve]
O=C(Sc1ccc(Cl)cc1)c1ccccn1	–	inconclusive [inhibitor, single point]
Brc1cc(Br)c2nc(-c3ccc(N4CCOCC4)cc3)ccc2c1	–	inconclusive [inhibitor, single point]
CC(C)C[C@H](NC(=O)c1[nH]cnc1C(=O)Nc1ccc(CNC(=O)OC(C)(C)C)cc1)C(=O)OC(C)(C)C	–	inconclusive [inhibitor, single point]
Cn1c(-c2ccccc2)c(C=O)c2ccccc21	–	inconclusive [inhibitor, partial curve]
